# Laboratory results from PubChem BioAssay AID463173 (ICCB-Longwood Screening Facility, Harvard Medical School, 2010).
# In all, about 52,000 compounds went through this assay and about 4,300 (8.3%) were called active. No stated cut-off is given here; in the data, active means survival mostly below about 52% (no sharp cut-off); inactive means mostly above about 56%. Some of the results follow.
# Tested on: DeltatarO mutant
# Test: S. aureus survival, RN4220 and DeltatarO strains – OD600, teichoic acid synthesis inhibitors, primary screen (AID 463173)
# Conditions: S. aureus RN4220 wild type/DeltatarO growth, OD600, 18 h, hits give low values, screened at 18.75 µg/mL (by protocol)
row,SMILES,survival
1,CC(=O)c1ccc(NS(=O)(=O)c2cccc(S(=O)(=O)c3ccc(Cl)cc3)c2)cc1,inactive: 124%
2,CCOc1ccc(CCNC(=O)CN2CCN(Cc3ccc(Cl)cc3)C2=O)cc1OCC,inactive: 69%
3,CCc1ccc(N(CC)C(=O)c2cc3c(=O)oc4ccc(C)cc4c3s2)cc1,active: 42%
4,COc1cccc(NC(=O)C(=O)NCC(c2ccc3c(c2)OCO3)N2CCN(C)CC2)c1 (stereo not given),inactive: 67%
5,Cc1cccc(NC(=O)CSc2ccc(-c3ccccn3)nn2)c1,inactive: 103%
6,Cc1cccc(C)c1Nc1nn2c(=O)c3cc4c(cc3nc2s1)OCO4,inactive: 76%
7,COc1cccc(Cn2c(Oc3cc(C)cc(C)c3)nc3c2c(=O)n(C)c(=O)n3C)c1,active: 31%
8,COc1ccc(CC(=O)N2CCc3cc(OC)c(OC)cc3C2COc2cc(C)cc(C)c2)cc1OC (stereo not given),inactive: 120%
9,CCc1ccc(S(=O)(=O)N(C(=O)c2ccncc2)c2ccc3oc(C)c(C(=O)OC)c3c2)cc1,inactive: 52%
10,Cc1cc(C)c(/C=N/NC(N)=O)c(C)c1/C=N/NC(N)=O,inactive: 84%
11,CC(C)NC(=O)CN1CCN(c2ccc(F)cc2)CC1,inactive: 87%
12,Cc1cc(C)cc(NC(=O)CCS(=O)(=O)c2cccc3nsnc23)c1,inactive: 58%
13,COc1ccc2sc(N(Cc3cccnc3)C(=O)c3ccc4c(c3)OCCO4)nc2c1,inactive: 101%
14,COc1ccccc1NC(=O)CC1COc2ccccc2O1 (stereo not given),inactive: 82%
15,COc1ccc(NC(=O)CCCSc2nc(-c3ccco3)cc(C(F)(F)F)n2)cc1OC,inactive: 45%
16,CCCCN(CC)CCCNC(=O)c1cc2c(=O)[nH]c3ccccc3c2n1C,inactive: 90%
17,COc1cccc(C(=O)Nc2cccc(OCc3cc(=O)n4c5c(sc4n3)CCCC5)c2)c1,active: 51%
18,CC(=O)Nc1ccc(NS(=O)(=O)c2c(C(=O)N3CCC(C)CC3)c(C)n(C)c2C)cc1,active: 20%
19,CCc1ccc(-c2cn3c(n2)sc2cc(C(=O)NC4CCCCC4)ccc23)cc1,inactive: 87%
20,COc1cccc(-c2nc(S(=O)(=O)c3ccc(Cl)cc3)c(NCc3ccccc3)o2)c1,inactive: 180%
21,COc1ccc2oc(=O)c(C(=O)NCCc3c(C)[nH]c4ccc(F)cc34)cc2c1,inactive: 46%
22,COCCNc1oc(-c2ccccc2)nc1S(=O)(=O)c1ccc(Br)cc1,inactive: 79%
23,CS(=O)(=O)N(CCC(=O)O)Cc1ccccc1,inactive: 87%

row,SMILES,survival
1,COc1ccc(CNC(=O)CN(c2ccc(C(C)C)cc2)S(=O)(=O)c2c(C)nn(C)c2C)cc1,inactive: 64%
2,COc1ccc(NC(=O)CSc2nc3ccccc3nc2N2CCC(C)CC2)cc1,inactive: 45%
3,O=S(=O)(c1ccccc1)N1CCC(n2cnc3ccccc32)CC1,inactive: 78%
4,Cc1ccc(-c2nc(=O)[nH]c3ccccc23)cc1,inactive: 102%
5,CCOC(=O)c1c(NC(C)=O)sc2c(NC(C)=O)cccc12,inactive: 69%
6,CCC(C(=O)OCc1cc(=O)n2nc(C)sc2n1)c1ccccc1 (stereo not given),inactive: 99%
7,Cc1cccc(-c2noc(CN(C3CCCCC3)S(=O)(=O)c3ccc(F)cc3)n2)c1,inactive: 71%
8,C(=N\N(Cc1ccccc1)Cc1ccccc1)/c1ccco1,inactive: 98%
9,COc1ccc(OC)c(NC(=O)c2c(NCc3sccc3C)sc3c2CCCCC3)c1,inactive: 78%
10,COc1ccc2c(c1)-c1nc(NC(=O)c3ccc(OC)c(Br)c3)sc1CC2,inactive: 59%
11,COc1ccc(CC(=O)NCCc2sc3nc(-c4ccc(OC)cc4)nn3c2C)cc1,inactive: 80%
12,Cc1cc(C)c(C)c(OCC(=O)Nc2ccc(S(=O)(=O)Nc3nc(C)cc(C)n3)cc2)c1,inactive: 51%
13,COc1ccccc1NC(=O)CCn1nc(-c2ccccc2OC)c2c(C)cc(C)nc21,inactive: 104%
14,Cc1ccccc1OCC(=O)OCc1cc(=O)n2nc(C3CC3)sc2n1,inactive: 91%
15,CCC(=O)N1CCc2cc(Br)cc(S(=O)(=O)CCC(=O)N3CCN(c4ccc(F)cc4)CC3)c21,inactive: 139%
16,O=C(CSC1=Nc2ccccc2N=C(c2ccc(F)cc2)C1)Nc1cccc(C(F)(F)F)c1,inactive: 70%
17,COc1ccc(CN(Cc2ccccc2)Cc2nnnn2C(C)(C)C)cc1,inactive: 63%
18,CCOC(=O)C1CCCN(C(=O)C2CCN(S(=O)(=O)c3c(C)noc3/C=C/c3ccccc3F)CC2)C1 (stereo not given),inactive: 85%
19,CCc1ccc(NC(=O)CC2C(=O)N(c3cccc(C)c3)C(=O)N2CCC(C)C)cc1 (stereo not given),inactive: 88%
20,CC(C)OC(=O)C(C(=O)C(F)(F)F)c1cc(NS(=O)(=O)c2ccc3c4c(cccc24)C(=O)N3)ccc1O (stereo not given),inactive: 64%
21,Cc1cccc(-c2nc3ccccc3n2Cc2ccccc2)c1,active: 0%
22,CCNc1ncnc2c1nnn2C,inactive: 55%
23,CCOC(=O)c1c(C)[nH]c(CCC(=O)Nc2c(C)cccc2CC)c1C,inactive: 67%

row,SMILES,survival
1,CCOC(=O)N1CCc2c(sc(NCc3cccc(F)c3)c2C(=O)Nc2ccc(OC)cc2OC)C1,inactive: 98%
2,CCC(=O)Nc1ccccc1-c1nc2ccccc2n(CC(=O)c2ccc(Cl)cc2)c1=O,active: 35%
3,Cc1ccc(S(=O)(=O)c2nnn3c2nc(NC(C)C)c2sccc23)cc1,inactive: 83%
4,O=C(/C=C/c1ccco1)Nc1cc(C(=O)O)cc(C(=O)O)c1,inactive: 84%
5,CCCN(CCC)CCCNC(=O)c1cn(CC)c2ccc(S(=O)(=O)N(C)C3CCCCC3)cc2c1=O,inactive: 94%
6,CCc1ccc(OCc2cc(=O)n3c4c(sc3n2)CCCC4)cc1,inactive: 61%
7,COc1cccc(N2CCN(C(=O)C3Cc4ccccc4N3C(C)=O)CC2)c1 (stereo not given),inactive: 76%
8,O=C(C1CCC1)N1CCCc2cc(S(=O)(=O)N3CCN(c4ccccc4)CC3)ccc21,inactive: 81%
9,Cc1ccc(S(=O)(=O)N2CCCc3cc(NS(=O)(=O)c4cc(F)ccc4F)ccc32)cc1,inactive: 120%
10,CCN(CC)c1ccc2ccc(=O)oc2c1,inactive: 79%
11,O=C(CCCn1c(=O)c2ccccc2n(Cc2cccc(Cl)c2)c1=O)NCCc1ccc(Cl)cc1,inactive: 90%
12,Cn1c(=O)c(=O)n(C)c2cc(S(=O)(=O)N3CCN(c4ccc(F)cc4)CC3)ccc21,inactive: 130%
13,COc1cc(C2CC(=O)c3cnc(N4CCN(CCO)CC4)nc3C2)cc(OC)c1OC (stereo not given),inactive: 92%
14,O=C(Cn1cc(S(=O)(=O)N2CCCC2)c(S(=O)(=O)N2CCCC2)c1)Nc1ccccc1,inactive: 89%
15,O=C(Nc1cccc(NC(=O)c2ccccc2F)c1)c1ccccc1,inactive: 77%
16,CC(C)c1ccc(NC(=O)CC2NCCNC2=O)cc1 (stereo not given),inactive: 78%
17,CCCC(=O)Nc1cc(C(=O)NCc2ccccc2)ccc1S(=O)(=O)c1ccc(Cl)cc1,inactive: 95%
18,O=C(CSc1nnc(-c2ccncc2)n1Cc1ccco1)N(c1ccccc1)c1ccccc1,inactive: 71%
19,O=C(Cn1cnc2ccccc2c1=O)N1CCCCCC1,inactive: 106%
20,COc1ccc2c(Sc3ccc(C)cc3)c(C(=O)NCc3ccc(F)cc3)[nH]c2c1,inactive: 96%
21,C=CCCC1(C)NNc2nc(=O)c(C)nn21 (stereo not given),inactive: 100%
22,COc1ccccc1NC(=O)C1=C(C)Nc2nc(CCCO)nn2C1c1cccc(O)c1 (stereo not given),inactive: 144%
23,Nc1c(NCCN2CCOCC2)c2ccccc2oc1=O,inactive: 82%

row,SMILES,survival
1,CC(=O)N1CCC2(CC1)OC(=O)C(C)=C2C(=O)Nc1cc(C)ccc1C,inactive: 83%
2,Cc1cc(Br)ccc1NC(=O)Cn1cnc2sc(C)c(S(=O)(=O)N3CCN(C)CC3)c2c1=O,inactive: 160%
3,CCCN(C(=O)c1cc2ccc3cccnc3c2[nH]1)c1ccc(F)cc1,inactive: 99%
4,CCSc1ccccc1C(=O)NCCCn1ccnc1,inactive: 96%
5,O=C(c1ccccc1Cl)N(Cc1ccco1)c1ccccn1,inactive: 55%
6,CCCCOc1ccc(CNC(=O)Cc2ccc(NC(=O)N3CCCCc4ccccc43)cc2)cc1,inactive: 101%
7,COc1ccc(-c2nc(SCC(=O)N3CCN(c4ccc(F)cc4)CC3)n[nH]2)cc1,inactive: 88%
8,CCn1c(=O)n(-c2ccc(F)cc2)c(=O)c2sc3ccccc3c21,inactive: 88%
9,O=C(Oc1ccccc1)c1ccc(F)cc1,inactive: 74%
10,CCOC(=O)c1c(Nc2ccc(F)cc2)nnc(-c2ccccc2)c1-c1ccccc1,active: -3%
11,O=C(NC1CC1)C1CCN(C(=O)c2ccc(Cl)cc2)CC1,inactive: 86%
12,CC(C)(C)OC(=O)N1CCC(c2c(C(=O)N3CCN(c4ccccc4)CC3)cnn2-c2ccccc2)CC1,inactive: 81%
13,Cc1nc2ccc(S(=O)(=O)N(CC(=O)Nc3cccc(Cl)c3)Cc3ccccc3)cc2s1,inactive: 70%
14,Cn1c(O)c(C=NCC2(C)CC(O)CC(C)(C)C2)c(=O)n(C)c1=S (stereo not given),inactive: 94%
15,Cc1nn(CC(=O)NCc2ccc(N(C)C)cc2)c(=O)c2c(C)n(-c3ccc(Cl)cc3)nc12,inactive: 101%
16,CCOc1ccc(NC(=O)CCn2c(=O)c3cccn3c3cccnc32)cc1,inactive: 85%
17,Cc1cccc(C(=O)NC(c2n[nH]c(=S)n2C)C(C)C)c1 (stereo not given),inactive: 111%
18,CC(=O)Nc1ccc(-n2c(CCC(=O)O)ccc2-c2ccc(Br)cc2)cc1,active: 45%
19,COc1ccc(Cl)cc1NC(=O)Cn1c(=O)n(Cc2cccs2)c(=O)c2cccnc21,inactive: 63%
20,Cc1nc2cccnc2n1C1CCN(S(=O)(=O)N(C)C)CC1,inactive: 70%
21,COc1ccc(CNC(=O)Cc2c(C)c3c(cc(C)c4c(C)coc43)oc2=O)cc1OC,inactive: 85%
